# Experimental data published in article PMC12136788.
# Some of the results follow.
# T1: UNK ZnF1-6 (called full-length) (human, UniProt Q9C0B0 30-357)
# T1 sequence: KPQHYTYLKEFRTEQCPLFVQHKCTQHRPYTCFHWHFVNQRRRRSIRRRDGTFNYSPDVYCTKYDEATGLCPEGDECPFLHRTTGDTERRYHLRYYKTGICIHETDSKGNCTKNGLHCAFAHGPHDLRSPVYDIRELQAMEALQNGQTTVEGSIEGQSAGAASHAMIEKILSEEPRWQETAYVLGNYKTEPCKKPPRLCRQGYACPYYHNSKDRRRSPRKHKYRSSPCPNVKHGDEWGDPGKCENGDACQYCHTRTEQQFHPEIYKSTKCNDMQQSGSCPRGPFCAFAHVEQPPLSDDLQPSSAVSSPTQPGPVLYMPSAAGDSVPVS
# B1: chr7:88202242:88202358:+|3pUTR|ENSG00000008277|unk|FALSE|unique (ssRNA)
# RNA: GGGAGUUCUACAGUCCGACGAUCUCAGGAUAGAUAAGCAUGUACUCCUUUUUUAACUUGCUGGAAGACUUGCCCCUCCAAACUAGCACCCCCAAAAGACAACUUCUUUCAGAAACGGGGUGUUUUACCUAAACAUAGUAGCUUCAACAGAGGAUUGAGCAUCA
# B2: chr1:117869688:117869789:-|3pUTR|ENSG00000196505|msi1|FALSE|unique (ssRNA)
# RNA: GGGAGUUCUACAGUCCGACGAUCACUCCAGCAGUGAGCAUUUAGAGAGUGUGUUGUCUUCCAGAGUCAUGAAUGAUUUUGUUUAGCUAUCAGGUCUACUACCUCUAAGGACAUUUCAUAGCAGCAUCUCUUGAGUUGCCUGCACAACAGAGGAUUGAGCAUCA
# B3: chr8:23145667:23145921:-|CDS|ENSG00000173530|control|control|control (ssRNA)
# RNA: GGGAGUUCUACAGUCCGACGAUCGGGGAUGCUUGCCUCUCCCUAUCACUACCUUAUCAUCAUAGUGGUUUUAGUCAUCAUUUUAGCUGUGGUUGUGGUUGGCUUUUCAUGUCGGAAGAAAUUCAUUUCUUACCUCAAAGGCAUCAACAGAGGAUUGAGCAUCA
# B4: chr6:107883018:107883119:-|CDS|ENSG00000025796|unk|FALSE|bound_elsewhere (ssRNA)
# RNA: GGGAGUUCUACAGUCCGACGAUCAAGGAAGAUGAAGAAGAAGUUUCAGAUAAGGGCAGUGAUUCUGAAGAAGAAGAAACCAAUAGAGAUUCCCAAAGUGAGAAAGAUGAUGGUAGUGACAGAGACUCUGAUAGAGAGCAAGAUCAACAGAGGAUUGAGCAUCA
# B5: chr7:50445662:50445763:-|CDS|ENSG00000132436|msi1|total|mutant (ssRNA)
# RNA: GGGAGUUCUACAGUCCGACGAUCGUUAUCUCAACGGGGAGAUGGUGAGCAUGAAUCUUCCCGAAGGAUAAAAACAGAAUUUUCCGUUCAAUCCGAUGGAGCAACAACAUCUUCUGAAGAUCGUAUCCCCGUGGUGGGAGCAACCAACAGAGGAUUGAGCAUCA
# B6: chr2:85327303:85327429:-|CDS|ENSG00000152291|msi1|total|mutant (ssRNA)
# RNA: GGGAGUUCUACAGUCCGACGAUCACCCAAAAAGGCAGCACCCGCAAGUCGGGUUCGGAGGCGCAGACCACAAAAGACAGCACCCGUAAGUCGCAUCCGGAGCUGCAGACUCCAAAAGACAGCACUGGCAAAUCGGGUGCGGAGCAACAGAGGAUUGAGCAUCA
# Target: T1, UNK ZnF1-6 (called full-length)
# Assay: nsRBNS (natural sequence RNA bind-n-seq); RBNS binding buffer (assumed for nsRBNS): 25 mM Tris pH 7.5, 150 mM KCl, 3 mM MgCl2, 0.01% Triton X-100, 500 ug/ml BSA, 20 U/ml SUPERase-In, 4 C; UNK is unkempt and MSI1 is Musashi-1; names of the RNAs are library labels; protein concentration not given here; high values mean tight binding
row,Binder,binding signal [enrichment R]
1,B1,0.937
2,B2,0.336
3,B3,0.895
4,B4,0.988
5,B5,0.518
6,B6,0.714
